Measurements: the antibiotic and cytotoxicity screens of Wong et al. (2023)
This is one part of the list.

tested on: S. aureus RN4220; assay: growth inhibition call (relative growth <= 0.2); settings: 50 µM

Growth inhibition call, inactive:
COc1ccc2c3c(n(c2c1)C)[C@H](CO)N(C[C@]13CCN(CC1)C(=O)c1ccncc1)C(=O)C1CCOCC1
COc1ccc(CN(C)C[C@H]2OCCCC[C@H](C)Oc3ccc(NC(=O)c4ccncc4)cc3C(=O)N([C@H](C)CO)C[C@@H]2C)cc1
C[C@@H]1CN([C@H](C)CO)C(=O)c2cc(NS(=O)(=O)c3cn(C)cn3)ccc2O[C@@H]1CN(C)S(=O)(=O)c1cn(C)cn1
CC(=O)OCC(=O)C1(O)CCC2C3CCC4=CC(=O)CCC4(C)C3C(O)CC21C (stereo not drawn)
NCCNc1cccc2ccccc12
O=P(O)(O)C(Sc1ccc(Cl)cc1)P(=O)(O)O
NC1(CC(=O)O)CCN(Cc2ccccc2)CC1
C[C@H]1CN([C@@H](C)CO)C(=O)c2cc(NC(=O)Nc3ccc4c(c3)OCO4)ccc2O[C@@H]1CN(C)Cc1ccc(Cl)c(Cl)c1
Cc1noc(C)c1S(=O)(=O)Nc1ccc2c(c1)C(=O)N([C@H](C)CO)C[C@@H](C)[C@H](CN(C)Cc1ccc(C(F)(F)F)cc1)OCCCC[C@H](C)O2
C[C@@H]1CN([C@H](C)CO)C(=O)c2c(c3ccccc3n2C)-c2ccccc2CO[C@H]1CN(C)Cc1cccc2c1OCCCO2
C[C@H]1CCCCO[C@H](CN(C)Cc2ccc(C(F)(F)F)cc2)[C@@H](C)CN([C@@H](C)CO)C(=O)c2cc(NC(=O)CCCN(C)C)ccc2O1
C[C@]1(CC(=O)O)C(=O)N=C2C=CC=CN21
C[C@@H]1CCCCO[C@@H](CN(C)S(=O)(=O)c2ccc(Cl)cc2)[C@H](C)CN([C@@H](C)CO)C(=O)c2cc(NC(=O)c3ccncc3)ccc2O1
